The values that follow come from PubChem BioAssay AID1508624 (National Center for Advancing Translational Sciences (NCATS), 2021).

The campaign covered roughly 48,000 compounds. About 120 (0.25%) were called active. Another 4% or so got no clear call; they are omitted. Calls follow the shape of the dose curve; as a rule, active = well fitted activation curve with a large enough effect; inconclusive = small, poorly fitted or top-dose-only effect, or another doubt; inactive = no such curve, though single readings can be large or run the other way. Some of the results follow.

The assay can be described thus: Primary qHTS for Identification of Small Molecule Activators of Huntingtin-Antisense Promoter Activity. Also: nearly all actives have a fitted effect of over 55% in size. The settings on record: HEK293 HTT-AS promoter firefly luciferase reporter, 24 h; at 57.5 µM (top of the series) unless noted. The procedure, abridged:
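Firefly luciferase readout (Dual-Glo, 10 min RT) after 24 h, 37 °C compound exposure (final up to 57.5 uM) of HEK293 reporter cells cultured 24 h beforehand; PTC124 at 50 uM final as control inhibitor; activity scaled vehicle 0%, zero RLU -100%.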
On the technique in general: Quantitative high-throughput screening tests each substance at several concentrations.
In the case of `COc1ccc(OC)c(NC(=O)Cn2cc(C(=O)c3ccccc3)c3ccccc32)c1`, the activity change, positive = activation is inactive: -36.2%.

With `O=C(Nc1ccc(Cl)cc1C(=O)c1ccccc1)c1cc(Cl)cc(Cl)c1`, the activity change, positive = activation was inactive: -2.42% [at 57.5 µM, percent change from vehicle, -100% = no light].

Consider `NC1CC1c1ccccc1` (stereo unspecified), for which the activity change, positive = activation is inactive: -7.36%.

In the case of `C=C(C)[C@H]1CN[C@H](C(=O)O)[C@H]1CC(=O)O`, the activity change, positive = activation was inactive: -4.25%.

Turning to `C#CC1(O)CCC2C3CCC4=CC(=O)CCC4(C)C3CCC21C` (stereo unspecified), the activity change, positive = activation was inactive: -15.6%.

As to `COc1ccc(-c2nc(CN3C(=O)CN=C(c4ccccc4)c4cc(Cl)ccc43)c(C)o2)cc1`, the activity change, positive = activation was inactive: -19.6%.

Turning to `CCOc1ccc2nc(NC(=O)c3cccn(Cc4ccc(Cl)cc4)c3=O)sc2c1`, the activity change, positive = activation was inactive: -22.1% [at 57.5 µM, percent change from vehicle, -100% = no light].

Turning to `Cc1cc(O)ccc1Cl`, the activity change, positive = activation is inactive: 4.54%.

Take `O=C1OC(CCN2CCCCC2)OC1(c1ccccc1)c1ccccc1` (stereo unspecified): the activity change, positive = activation is inactive: -8.91%.

For the compound `CCc1ccccc1NC(=O)c1cccn(Cc2ccccc2F)c1=O`, the activity change, positive = activation was inactive: -16.9% [at 57.5 µM, percent change from vehicle, -100% = no light].

For `CCCC(C)C1(CC)C(=O)N=C(S)NC1=O` (stereo unspecified), the activity change, positive = activation was inactive: -9.32%.

For the compound `O=C(Nc1ccncc1)C(=O)c1cn(Cc2ccc(Cl)cc2)c2ccccc12`, the activity change, positive = activation is inactive: -17.6%.

With `Nc1ccccc1C(=O)O`, the activity change, positive = activation is inactive: -4.15%.

For the compound `COc1ccccc1NC(=O)N(Cc1ccc2c(c1)OCO2)C1CCN(Cc2ccccc2)CC1`, the activity change, positive = activation is inactive: -17.7%.

Turning to `Cc1c(Cl)cccc1NC(=O)CN1C(=O)C(C)N=C(c2ccccc2)c2ccccc21` (stereo unspecified), the activity change, positive = activation was inactive: -21.1% [at 57.5 µM, percent change from vehicle, -100% = no light].

`CC(C(=O)c1ccccc1)N(C)C` (stereo unspecified): the activity change, positive = activation was inactive: -8.46%.

With `CCOC(=O)c1c(C(C#N)=CN)c2ccc(Cl)c(Cl)c2n1C`, the activity change, positive = activation was inactive: -17.2%.

`COc1cc(C(c2c(O)c3ccccc3oc2=O)c2c(C)n(C)n(-c3ccccc3)c2=O)ccc1OCC(=O)O` (stereo unspecified): the activity change, positive = activation is inactive: -2.35% [at 57.5 µM, percent change from vehicle, -100% = no light].

In the case of `CN1CCc2cc(Cl)c(O)cc2[C@H]2c3ccccc3CC[C@@H]21`, the activity change, positive = activation was inactive: -11%.

As for `O=C(Nc1ccc(Cl)cc1C(=O)c1ccccc1)c1ccccc1Br`, the activity change, positive = activation is inactive: -14.3%.

For `Nc1c(C(=O)Nc2ccc(Br)cc2F)sc2nc3c(cc12)N1CCC3CC1`, the activity change, positive = activation is inactive: -18.8%.
